# Assay results taken from the supplement of paper PMC4604168 (melanoma cell lines).
# This is one part of the list. Repeats are few or missing, and single values can be far off.
# What was measured:
# Assay in all cases: cell count relative to DMSO control; melanoma cells; higher = more viable cells
# Details in all cases: library dose: low library concentration; 72 h
# [1] = test system: MZ2-MEL
# [2] = test system: MeWo
# [3] = test system: RPMI7951
# [4] = test system: RVH-421
# [5] = test system: SkMel28
# [6] = test system: SkMel2
# [7] = test system: SkMel30
# [8] = test system: UACC62
# [9] = test system: SkMel5
# [10] = test system: UACC257
# 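Further: cell number obtained by counting DAPI-stained nuclei in high-throughput microscope images with image analysis software, screen run in 1,536-well plates.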
SMILES,cell count [1] [%],cell count [2] [%],cell count [3] [%],cell count [4] [%],cell count [5] [%],cell count [6] [%],cell count [7] [%],cell count [8] [%],cell count [9] [%],cell count [10] [%]
"O=c1[nH]nc(Sc2ncc([N+](=O)[O-])s2)n1-c1ccc2c(c1)OCCO2 + CCCS(=O)(=O)Nc1ccc(F)c(C(=O)c2c[nH]c3ncc(Cl)cc23)c1F [PLX4720] (first compound 0.2 µM, partner dose 0.08 µM)",92.7,93.9,118,122,80.5,101,95.5,64.4,,
"O=c1[nH]nc(Sc2ncc([N+](=O)[O-])s2)n1-c1ccc2c(c1)OCCO2 + O=C(O)[C@@H]1[O][Sb](=[O])([O][Sb]2(=[O])[O][C@H]([C@H](O)CO)[C@H](O)[C@H](C(=O)O)[O]2)[O][C@H]([C@H](O)CO)[C@@H]1O [stibogluconate] (first compound 0.2 µM, partner dose 2 µM)",112,111,113,85.8,102,102,94.7,124,,
"O=c1[nH]nc(Sc2ncc([N+](=O)[O-])s2)n1-c1ccc2c(c1)OCCO2 + Cc1ccc(Nc2nccc(N(C)c3ccc4c(C)n(C)nc4c3)n2)cc1S(N)(=O)=O [Pazopanib] (first compound 0.2 µM, partner dose 0.4 µM)",75.4,109,98.1,96.8,106,104,85.3,87.8,,
"O=c1[nH]nc(Sc2ncc([N+](=O)[O-])s2)n1-c1ccc2c(c1)OCCO2 + C#Cc1cccc(Nc2ncnc3cc(OCCOC)c(OCCOC)cc23)c1 [erlotinib] (first compound 0.2 µM, partner dose 0.8 µM)",95.2,91.6,74.2,80.5,81.7,93.7,93.3,105,,
"COc1cc(Nc2ncc(F)c(Nc3ccc4c(n3)NC(=O)C(C)(C)O4)n2)cc(OC)c1OC [Tamatinib] + Cn1cncc1[C@@](N)(c1ccc(Cl)cc1)c1ccc2c(c1)c(-c1cccc(Cl)c1)cc(=O)n2C [tipifarnib] (first compound 0.4 µM, partner dose 0.01 µM)",84.7,79.2,70,82.5,71,75.4,65.7,56.6,2.43,59.1
"O=c1[nH]nc(Sc2ncc([N+](=O)[O-])s2)n1-c1ccc2c(c1)OCCO2 + COc1ccc(Cl)c(Nc2nc3ccccc3nc2NS(=O)(=O)c2cccc(NC(=O)C(C)(C)N)c2)c1 [XL147] (first compound 0.2 µM, partner dose 0.8 µM)",96.1,94.2,96.8,86.7,94.6,98.4,88.7,91.9,,
"O=c1[nH]nc(Sc2ncc([N+](=O)[O-])s2)n1-c1ccc2c(c1)OCCO2 + Cn1c(Nc2ccc(C(F)(F)F)cc2)nc2cc(Oc3ccnc(-c4ncc(C(F)(F)F)[nH]4)c3)ccc21 [CHIR265] (first compound 0.2 µM, partner dose 0.08 µM)",89.9,72.8,68.9,68.3,80.8,92.4,55.8,55.1,,
"O=c1[nH]nc(Sc2ncc([N+](=O)[O-])s2)n1-c1ccc2c(c1)OCCO2 + O=S(=O)(c1ccccc1)N(CC(F)(F)F)c1ccc(C(O)(C(F)(F)F)C(F)(F)F)cc1 [T0901317] (first compound 0.2 µM, partner dose 1.4 µM)",99.7,97.2,100,85.9,76.2,96.9,104,103,96,130
"O=c1[nH]nc(Sc2ncc([N+](=O)[O-])s2)n1-c1ccc2c(c1)OCCO2 + O=C(O)c1ccc2c(c1)nc(Nc1cccc(Cl)c1)c1ccncc12 [CX4945] (first compound 0.2 µM, partner dose 0.4 µM)",97.2,98.2,98,108,106,98.3,86.2,110,,
"COc1cc(Nc2ncc(F)c(Nc3ccc4c(n3)NC(=O)C(C)(C)O4)n2)cc(OC)c1OC [Tamatinib] + O=C(O)c1ccc(-c2c[nH]c3ncc(-c4ccccc4)cc23)cc1C1CCCC1 [GSK650394] (first compound 0.4 µM, partner dose 0.16 µM)",95.9,84.3,99,94.6,68.8,93.3,97.7,72,77.3,66.5
"Cn1cncc1[C@@](N)(c1ccc(Cl)cc1)c1ccc2c(c1)c(-c1cccc(Cl)c1)cc(=O)n2C [tipifarnib] + NCC(=O)Nc1ccc(-n2nc(C(F)(F)F)cc2-c2ccc3c(ccc4ccccc43)c2)cc1 [OSU03012] (first compound 0.01 µM, partner dose 1 µM)",102,52.5,93.9,72.7,79.1,58.9,59.7,79.3,90,74.9
"COc1cc(Nc2ncc(F)c(Nc3ccc4c(n3)NC(=O)C(C)(C)O4)n2)cc(OC)c1OC [Tamatinib] + CC(C)(C)c1cnc(CSc2cnc(NC(=O)C3CCNCC3)s2)o1 [SNS-032] (first compound 0.4 µM, partner dose 0.01 µM)",96.1,92.8,90.7,125,86.6,91.1,83.3,78.6,96.8,70.6
"O=c1[nH]nc(Sc2ncc([N+](=O)[O-])s2)n1-c1ccc2c(c1)OCCO2 + CC(C)C[C@H](NC(=O)[C@H](Cc1ccccc1)NC(=O)c1cnccn1)B(O)O [Bortezomib] (first compound 0.2 µM, partner dose 0.001 µM)",90.1,117,85.9,95.2,115,92.3,110,98,,
"O=c1[nH]nc(Sc2ncc([N+](=O)[O-])s2)n1-c1ccc2c(c1)OCCO2 + Cn1nnc2c(C(N)=O)ncn2c1=O [temozolomide] (first compound 0.2 µM, partner dose 2 µM)",90.9,90.3,105,95.4,66.8,91.1,84.8,73.1,,
"O=c1[nH]nc(Sc2ncc([N+](=O)[O-])s2)n1-c1ccc2c(c1)OCCO2 + Cc1cn(-c2cc(NC(=O)c3ccc(C)c(Nc4nccc(-c5cccnc5)n4)c3)cc(C(F)(F)F)c2)cn1 [nilotinib] (first compound 0.2 µM, partner dose 0.2 µM)",89.7,92.6,88.6,109,105,102,94.8,83.9,,
"O=c1[nH]nc(Sc2ncc([N+](=O)[O-])s2)n1-c1ccc2c(c1)OCCO2 + Nc1cccc2c1CN(C1CCC(=O)NC1=O)C2=O [lenalidomide] (first compound 0.2 µM, partner dose 1 µM)",97,87.6,90.5,92.1,119,93.6,101,92.8,,
"O=c1[nH]nc(Sc2ncc([N+](=O)[O-])s2)n1-c1ccc2c(c1)OCCO2 + C[C@@H](N)c1ccc(C(=O)Nc2ccnc3[nH]ccc23)cc1 [RKI983] (first compound 0.2 µM, partner dose 0.4 µM)",80.2,87.2,80.3,76.2,87.6,90.2,94.8,83.7,,
"O=c1[nH]nc(Sc2ncc([N+](=O)[O-])s2)n1-c1ccc2c(c1)OCCO2 + COCC[n+]1c2c(n(Cc3cnccn3)c1C)C(=O)c1ccccc1C2=O [YM155] (first compound 0.2 µM, partner dose 0.0004 µM)",59.7,93.6,80.7,99,83.2,102,112,87.9,,
"O=c1[nH]nc(Sc2ncc([N+](=O)[O-])s2)n1-c1ccc2c(c1)OCCO2 + c1cc(-c2cnn3cc(-c4ccc(OCCN5CCCCC5)cc4)cnc23)ccn1 [Dorsomorphin] (first compound 0.2 µM, partner dose 0.4 µM)",102,104,90.5,100,117,104,95.8,104,90.2,83
"O=c1[nH]nc(Sc2ncc([N+](=O)[O-])s2)n1-c1ccc2c(c1)OCCO2 + O=C1NC(=O)/C(=C/c2ccc(-c3ccc(F)cc3O)o2)S1 [AS252424] (first compound 0.2 µM, partner dose 1 µM)",103,87.2,97.9,90.6,105,104,102,99.3,118,100
"O=c1[nH]nc(Sc2ncc([N+](=O)[O-])s2)n1-c1ccc2c(c1)OCCO2 + CNC(=O)c1cc(Oc2ccc(NC(=O)Nc3ccc(Cl)c(C(F)(F)F)c3)cc2)ccn1 [sorafenib] (first compound 0.2 µM, partner dose 0.4 µM)",95.5,103,88.4,111,100,101,93.8,107,,
"Cn1cncc1[C@@](N)(c1ccc(Cl)cc1)c1ccc2c(c1)c(-c1cccc(Cl)c1)cc(=O)n2C [tipifarnib] + Cc1cc([N+](=O)[O-])ccc1NS(=O)(=O)c1cc(Cl)ccc1Cl [FH535] (first compound 0.01 µM, partner dose 1 µM)",92.6,94.2,81,83.8,79.8,,92.6,74.9,88.3,75.7
"O=C(Nc1cccc(Cl)c1)Nc1ncc(CCNc2ncnc3ccsc23)s1 + O=S(=O)(c1ccccc1)N(CC(F)(F)F)c1ccc(C(O)(C(F)(F)F)C(F)(F)F)cc1 [T0901317] (first compound 0.0008 µM, partner dose 1.4 µM)",98.4,92.8,86,97.8,76.4,,106,85.8,84.8,87.6
"CC1(C)NC(=O)N(c2ccc([N+](=O)[O-])c(C(F)(F)F)c2)C1=O [nilutamide] + CCN(CC)CCCCNc1ncc2cc(-c3cc(OC)cc(OC)c3)c(NC(=O)NC(C)(C)C)nc2n1 [PD173074] (first compound 1 µM, partner dose 0.1 µM)",106,109,109,79.6,95.6,,100,85.8,108,114
"O=C(O)c1ccc(-c2c[nH]c3ncc(-c4ccccc4)cc23)cc1C1CCCC1 + Cn1cc(/C=C2\C(=O)Nc3cccnc32)c2ccccc21 [GW441756] (first compound 0.16 µM, partner dose 0.4 µM)",94.5,82,112,108,86.3,,101,94.1,81.2,91.5
"C[C@@H]1CCN(C(=O)CC#N)C[C@@H]1N(C)c1ncnc2[nH]ccc12 + COc1cc2ncnc(Nc3ccc(Oc4ccccc4)cc3)c2cc1OC [SrcI1] (first compound 1 µM, partner dose 2 µM)",92.7,107,98.5,103,73.2,,110,98.7,95.4,95.1
"O=C(O)c1ccc(-c2c[nH]c3ncc(-c4ccccc4)cc23)cc1C1CCCC1 + O=C(O)C(=O)Nc1sc2c(c1C(=O)O)CCNC2 [TCS401] (first compound 0.16 µM, partner dose 1.66667 µM)",95.3,95.5,88.2,96.5,94.4,,109,86.1,95.5,78.1
"O=c1[nH]nc(Sc2ncc([N+](=O)[O-])s2)n1-c1ccc2c(c1)OCCO2 + CC(=O)c1c(C)c2cnc(Nc3ccc(N4CCNCC4)cn3)nc2n(C2CCCC2)c1=O [palbociclib] (first compound 0.2 µM, partner dose 0.04 µM)",82.3,82.9,75.3,64.1,103,91.2,70.2,76,,
"Cn1cncc1[C@@](N)(c1ccc(Cl)cc1)c1ccc2c(c1)c(-c1cccc(Cl)c1)cc(=O)n2C [tipifarnib] + O=c1cc(-c2cccc3c2Sc2ccccc2S3)oc(N2CCOCC2)c1 [KU55933] (first compound 0.01 µM, partner dose 1 µM)",101,87.3,86.5,104,76,,95.6,58.3,87.8,92.9
"O=C(O)c1ccc(-c2c[nH]c3ncc(-c4ccccc4)cc23)cc1C1CCCC1 + COc1ccc(COc2ccc(Cc3cnc(N)nc3N)cc2OC)cc1 [GW2580] (first compound 0.16 µM, partner dose 1 µM)",92.5,95.6,93.4,107,94.2,,99.7,99.2,94.1,107
